Data from the supplement of paper PMC10338343.
± gives the standard deviation. The entries are a selection whose mix differs from that of the whole data set.

tested on: MIWI (PIWIL1) piRISC loaded with piRNA #1 (30 nt); assay: pre-steady-state target cleavage rate (min^-1); MIWI and MILI are mouse PIWI proteins and EfPiwi is from a freshwater sponge; tags in brackets are library labels; higher = faster piRNA-guided slicing of the target; conditions: guide: piRNA #1 5'p-UGAGGUAGUAGGUUGUAUAGUAUCCAGAGG; auxiliary factor: 500 nM mouse GTSF1
Outline: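 A transcribed, DNA-blocked target RNA library (0.1 nM) and 1 nM active affinity-purified piRISC bearing one synthetic guide were incubated in HEPES–potassium acetate buffer at 33 °C for 0–8 or 0–960 min, either with or without 500 nM GTSF1 partner protein. Uncleaved targets were sequenced, normalised to depth and to weakly complementary targets, and pooled over three trials, with k3 capped at 0.0001 min^-1. The pre-steady-state cleavage rate was derived with a burst-and-steady-state fit.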

Row | Sequence | pre-steady-state target cleavage rate
1 | CCUCUGCUAACUAUACAACCUACUACCUCA | 1.86 ± 0.12
2 | CCUCUGGAAACUUUACAACCUACUACCUCA | 1.88 ± 0.12
3 | GCUGUGGAUUCUAUACAACCUACUACCUCA | 1.69 ± 0.1
4 | GGACUGGAUACUAUACAACCUACUACCCUCA | 0.625 ± 0.09
5 | CCUCUGGAUACUAAACAACCUAGUACCUCA | 0.0925 ± 0.023
6 | GGAGACCAUACUAUUGAACCUACUACCUCA | 0.413 ± 0.037
7 | GGAGACUAUACUAUACAACCUACUACCUCA | 1.72 ± 0.12
8 | CCUCUGGAUACUAAACAUCCUACUACCUCA | 1.52 ± 0.098
9 | GGAGACCUUACUAUUCAACCUACUAGCUCA | 0.424 ± 0.036
10 | GGAGAGCAUACUAUACUACCUACUACCUCA | 1.07 ± 0.074
11 | GGAGACCUAUGAUUACAACCUACUAGCACA | < 0.0001
12 | GGAGACGAUUCUAUACAUCCUACUACCUCA | 1.29 ± 0.088
13 | GGAGACGUUACUAUACAAGCUACUACCUCA | 0.869 ± 0.048
14 | GGAGACCUAACUAUUCAACCUUCUACCUCA | 0.0695 ± 0.011
15 | GCUCUGGAAACUAUACAUCCUACUACCUCA | 1.59 ± 0.097
16 | GGAGACCAUACUAUACAACCUACUACCUAA | 1.41 ± 0.088
17 | GGAGACCAUUCUAUACAAGCUACUACCUCA | 0.688 ± 0.048
18 | GGACUGGAUACUAUACUACCUACUACCACA | 0.945 ± 0.11
19 | GCUCUGGAUACUAUACAACCUACUUGGAGA [g7:g29:cont:t1A] | 0.0788 ± 0.02
20 | GGUCUGGUUUCUAUACAACCUACUACCUCA | 1.8 ± 0.12
21 | GGAGACCUAUGAAUACAACACUACUACCUCA | < 0.0001
22 | GGAGACCAUACUAUACAACCUACUCCCUCA | 1.03 ± 0.082
23 | CCUCUGGAUACUAUACUAACCUACUACCUCA | 0.0165 ± 0.0057
24 | GGAGACGUAUACUAUACAACCUACUACCUCA | 1.76 ± 0.1
